# According to the supplement of paper PMC8728848:
# The list shows a part of the results.
# B1: PpFlo1 (Pichia pastoris) (protein)
# chain: MGSSHHHHHHSSGLVPRGSHMQESGDGDISDSAYACDIDATRYDGFNATIYEFQPGDGRLTRDPVFMSTGYLNRTQLHSITGVTDPGFSIYTPGVPTTTLYGIPNVNWENLLLELKGYFRAEVSGDYGLSLRNIDDSAILFFGKETAFQCCNENSISNEASTDYSLFTIFRQEGDETTNLDSFTYTQYLEAGKYYPVRTFFVNIERHAVFNFTMTLPDGTELTDFHNYIYQFGALDEEQCQA
# Columns and labels:
# Assay in all cases: glycan array binding signal (z-score within array); higher = stronger binding
# Details in all cases: glycan notation: IUPAC condensed, linker removed
# [1] = target: GlcNAc(a1-4)Gal(b1-4)GlcNAc(b1-3)Gal(b1-4)GlcNAc(b1-3)Gal(b1-4)GlcNAc
# How it was run: (§1)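 Columns mapping to the same glycan were averaged after glycan names were converted to IUPAC-condensed notation. The data come from 3228 arrays in the Consortium for Functional Glycomics database, limited to those with an available protein sequence. Binding is reported as a within-array Z-score averaged across arrays of one protein sequence and across linkers.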
# [2] = target: GlcNAc(a1-4)Gal(b1-4)GlcNAc(b1-3)Gal(b1-4)[Fuc(a1-3)]GlcNAc(b1-3)Gal(b1-4)[Fuc(a1-3)]GlcNAc
# How it was run: as §1
# [3] = target: GlcNAc(a1-6)Gal(b1-4)GlcNAc
# How it was run: as §1
# [4] = target: GlcNAc(b1-2)Gal(b1-3)GalNAc
# How it was run: as §1
# [5] = target: GlcNAc(b1-2)Man(a1-3)[GlcNAc(b1-2)Man(a1-6)]Man(b1-4)GlcNAc(b1-4)GlcNAc
# How it was run: as §1
# [6] = target: GlcNAc(b1-2)Man(a1-3)[GlcNAc(b1-2)Man(a1-6)]Man(b1-4)GlcNAc(b1-4)[Fuc(a1-6)]GlcNAc
# How it was run: as §1
# [7] = target: GlcNAc(b1-2)Man(a1-3)[GlcNAc(b1-4)][GlcNAc(b1-2)Man(a1-6)]Man(b1-4)GlcNAc(b1-4)GlcNAc
# How it was run: as §1
# [8] = target: GlcNAc(b1-2)Man(a1-3)[GlcNAc(b1-4)][GlcNAc(b1-2)Man(a1-6)]Man(b1-4)GlcNAc(b1-4)[Fuc(a1-6)]GlcNAc
# How it was run: as §1
# [9] = target: GlcNAc(b1-2)[GlcNAc(b1-4)]Man(a1-3)[GlcNAc(b1-2)Man(a1-6)]Man(b1-4)GlcNAc(b1-4)GlcNAc
# How it was run: as §1
# [10] = target: GlcNAc(b1-2)[GlcNAc(b1-4)]Man(a1-3)[GlcNAc(b1-4)][GlcNAc(b1-2)Man(a1-6)]Man(b1-4)GlcNAc(b1-4)GlcNAc
# How it was run: as §1
# [11] = target: GlcNAc(b1-2)[GlcNAc(b1-4)]Man(a1-3)[GlcNAc(b1-4)][GlcNAc(b1-2)[GlcNAc(b1-6)]Man(a1-6)]Man(b1-4)GlcNAc(b1-4)GlcNAc
# How it was run: as §1
# [12] = target: GlcNAc(b1-2)[GlcNAc(b1-4)]Man(a1-3)[GlcNAc(b1-4)][GlcNAc(b1-2)[GlcNAc(b1-6)]Man(a1-6)]Man(b1-4)GlcNAc(b1-4)[Fuc(a1-6)]GlcNAc
# How it was run: as §1
# [13] = target: GlcNAc(b1-2)[GlcNAc(b1-6)]Man(a1-6)[GlcNAc(b1-2)Man(a1-3)]Man(b1-4)GlcNAc(b1-4)GlcNAc
# How it was run: as §1
# [14] = target: GlcNAc(b1-2)[GlcNAc(b1-6)]Man(a1-6)[GlcNAc(b1-2)Man(a1-3)]Man(b1-4)GlcNAc(b1-4)[Fuc(a1-6)]GlcNAc
# How it was run: as §1
# [15] = target: GlcNAc(b1-2)[GlcNAc(b1-6)]Man(a1-6)[GlcNAc(b1-2)Man(a1-3)][GlcNAc(b1-4)]Man(b1-4)GlcNAc(b1-4)GlcNAc
# How it was run: as §1
# [16] = target: GlcNAc(b1-2)[GlcNAc(b1-6)]Man(a1-6)[GlcNAc(b1-4)][GlcNAc(b1-2)Man(a1-3)]Man(b1-4)GlcNAc(b1-4)GlcNAc
# How it was run: as §1
# GlcNAc(b1-3)Fuc = target: GlcNAc(b1-3)Fuc
# How it was run: as §1
# GlcNAc(b1-3)Gal = target: GlcNAc(b1-3)Gal
# How it was run: as §1
# [17] = target: GlcNAc(b1-3)Gal(b1-3)GalNAc
# How it was run: as §1
# GlcNAc(b1-3)Gal(b1-4)Glc = target: GlcNAc(b1-3)Gal(b1-4)Glc
# How it was run: as §1
# [18] = target: GlcNAc(b1-3)Gal(b1-4)GlcNAc
# How it was run: as §1
# [19] = target: GlcNAc(b1-3)Gal(b1-4)GlcNAc(b1-2)Man(a1-3)[GlcNAc(b1-3)Gal(b1-4)GlcNAc(b1-2)Man(a1-6)]Man(b1-4)GlcNAc(b1-4)GlcNAc
# How it was run: as §1
binder,measurement,setting,value
B1,glycan array binding signal (z-score),[1],0.046
same,glycan array binding signal (z-score),[2],0.847
same,glycan array binding signal (z-score),[3],0.325
same,glycan array binding signal (z-score),[4],-0.098
same,glycan array binding signal (z-score),[5],0.686
same,glycan array binding signal (z-score),[6],0.12
same,glycan array binding signal (z-score),[7],-0.685
same,glycan array binding signal (z-score),[8],-0.503
same,glycan array binding signal (z-score),[9],-0.171
same,glycan array binding signal (z-score),[10],1.17
same,glycan array binding signal (z-score),[11],-0.337
same,glycan array binding signal (z-score),[12],-0.195
same,glycan array binding signal (z-score),[13],-0.18
same,glycan array binding signal (z-score),[14],0.03
same,glycan array binding signal (z-score),[15],-0.522
same,glycan array binding signal (z-score),[16],0.009
same,glycan array binding signal (z-score),GlcNAc(b1-3)Fuc,-0.291
same,glycan array binding signal (z-score),GlcNAc(b1-3)Gal,0.242
same,glycan array binding signal (z-score),[17],0.218
same,glycan array binding signal (z-score),GlcNAc(b1-3)Gal(b1-4)Glc,-0.244
same,glycan array binding signal (z-score),[18],0.154
same,glycan array binding signal (z-score),[19],0.121
